Experimental data taken from the BET-seq Pho4 binding data (Le et al. 2018).
The list shows a part of the results. Values were computed here from the reads of four pooled replicates and scatter widely.

What follows are sequences tested against T1, Pho4 (S. cerevisiae) (UniProt P07270) (assay: relative binding free energy (BET-seq); higher = weaker binding). Details: reference: library average.
T1 sequence: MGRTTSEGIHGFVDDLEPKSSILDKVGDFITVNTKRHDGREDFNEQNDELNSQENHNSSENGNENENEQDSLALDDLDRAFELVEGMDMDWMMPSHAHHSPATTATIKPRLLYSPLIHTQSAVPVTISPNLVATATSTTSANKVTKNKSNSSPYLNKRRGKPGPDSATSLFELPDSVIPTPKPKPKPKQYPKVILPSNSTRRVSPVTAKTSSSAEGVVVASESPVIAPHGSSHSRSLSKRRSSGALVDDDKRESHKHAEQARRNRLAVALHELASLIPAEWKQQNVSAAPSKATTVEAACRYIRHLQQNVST

Sequence | relative binding free energy
ATATTCACGTGCAAGT | 0.27 kcal/mol
TAGTTCACGTGTTTGT | 0.29 kcal/mol
GTAGACACGTGGTCAG | -0.05 kcal/mol
GTGTGCACGTGTATTG | -0.03 kcal/mol
AGATTCACGTGAGGGC | 0.38 kcal/mol
CCTTTCACGTGGGTGT | 0.07 kcal/mol
TGTGTCACGTGTGCAA | -0.07 kcal/mol
TTTTTCACGTGTTCCG | 0.26 kcal/mol
TTCTTCACGTGATTTA | 0.17 kcal/mol
TGGAGCACGTGGTTTC | -0.15 kcal/mol
TGCGTCACGTGGTCTA | 0 kcal/mol
GATGCCACGTGCGGTG | -0.1 kcal/mol
TTAGGCACGTGTAGTA | 0.1 kcal/mol
TTTCACACGTGTTTGG | 0.07 kcal/mol
AGGTGCACGTGGGTCC | -0.15 kcal/mol
AATGTCACGTGGTTAT | 0.07 kcal/mol
GTGGTCACGTGAAAGA | 0.48 kcal/mol
GTTAGCACGTGGGCCG | -0.16 kcal/mol
ATTTTCACGTGATTGG | 0.32 kcal/mol
ATTATCACGTGGCGCG | 0.07 kcal/mol
GATTGCACGTGTTGTC | 0.03 kcal/mol
CCGAGCACGTGGGGTT | -0.15 kcal/mol
GAGGTCACGTGTCATT | 0.2 kcal/mol

Sequence | relative binding free energy
GTTTGCACGTGTTGTC | 0.17 kcal/mol
TGTAGCACGTGTTCAG | -0.2 kcal/mol
GGGGGCACGTGTAGTG | -0.03 kcal/mol
TATGGCACGTGTCGTG | -0.07 kcal/mol
GGGTACACGTGTGTTC | 0 kcal/mol
CGTTACACGTGGCTGG | -0.03 kcal/mol
GGCAACACGTGTGGTG | 0.07 kcal/mol
TAGAACACGTGGGGAC | 0.22 kcal/mol
GGTGTCACGTGCAATG | 0.12 kcal/mol
CTATGCACGTGGCGGG | -0.2 kcal/mol
CGTAGCACGTGGTGAA | -0.1 kcal/mol
TCACGCACGTGGAGGG | -0.08 kcal/mol
GAAGGCACGTGGTGCT | -0.35 kcal/mol
TGTGTCACGTGCATTA | -0.09 kcal/mol
AGGGACACGTGTAGTA | -0.06 kcal/mol
AAGTTCACGTGGAGGC | 0.1 kcal/mol
TTTTTCACGTGGTTAA | 0.23 kcal/mol
TGTGTCACGTGACAGA | 0.19 kcal/mol
TCAGTCACGTGAGGAG | 0.27 kcal/mol
TAGGCCACGTGAGGTT | 0.25 kcal/mol
TAAGGCACGTGTAATT | -0.02 kcal/mol
AGTGTCACGTGGTTCC | 0.14 kcal/mol
TTCTGCACGTGAGTTA | 0.19 kcal/mol

Sequence | relative binding free energy
AGAGGCACGTGGTCAT | -0.29 kcal/mol
GGGGTCACGTGAGCTA | 0.35 kcal/mol
AGCCGCACGTGGTTGG | -0.12 kcal/mol
TGGTGCACGTGAGCGT | 0.16 kcal/mol
AGCTACACGTGGAGTG | 0.17 kcal/mol
AGTGCCACGTGTGTCT | -0.06 kcal/mol
TTTTCCACGTGTGTAA | 0.17 kcal/mol
CGAGCCACGTGTGGGT | -0.05 kcal/mol
TTAGACACGTGGAATT | 0.16 kcal/mol
CTTGTCACGTGTGATT | 0.28 kcal/mol
TTTTTCACGTGAGTTC | 0.46 kcal/mol
ATGGTCACGTGCGGAT | 0.09 kcal/mol
GCAGGCACGTGGTGTT | -0.19 kcal/mol
GGTGTCACGTGGCTAT | -0.04 kcal/mol
AGTAACACGTGGGGAG | -0.14 kcal/mol
TTAGGCACGTGCAGTA | -0.18 kcal/mol
TTGCTCACGTGGCGTG | 0.04 kcal/mol
TAAAGCACGTGGGTTA | -0.12 kcal/mol
TGTAGCACGTGTGAAG | 0 kcal/mol
GTAATCACGTGCAGGA | 0.35 kcal/mol
AAGTGCACGTGGTTCT | 0 kcal/mol
TGAGACACGTGAGAGG | 0.2 kcal/mol
GGGTGCACGTGCGAGA | 0.06 kcal/mol

Sequence | relative binding free energy
TCTTACACGTGTGGGG | 0.21 kcal/mol
AGTTTCACGTGGCGAT | 0.2 kcal/mol
GGCGCCACGTGCGGGG | -0.25 kcal/mol
TCGCGCACGTGTGTGT | -0.17 kcal/mol
ACGGGCACGTGCGGGT | -0.15 kcal/mol
ATTGACACGTGTTGCA | -0.13 kcal/mol
TAGAGCACGTGTGGGA | -0.05 kcal/mol
TTGTCCACGTGTTGGT | 0.12 kcal/mol
ATGCGCACGTGGGTCG | -0.33 kcal/mol
TGCATCACGTGGTTGT | 0.09 kcal/mol
AGGCGCACGTGGAGAG | -0.11 kcal/mol
ACTGTCACGTGTAGTG | 0.13 kcal/mol
TACATCACGTGGTGGT | 0 kcal/mol
GTGTTCACGTGGGACG | 0.32 kcal/mol
ATGTACACGTGGGTAG | -0.08 kcal/mol
TCGTTCACGTGGGTTC | 0.19 kcal/mol
GGTGTCACGTGCATGG | 0.23 kcal/mol
GTTTGCACGTGAATAA | 0.24 kcal/mol
CTGAGCACGTGGGTTC | -0.16 kcal/mol
CGCTTCACGTGGGTTT | 0.35 kcal/mol
TGTTCCACGTGTGGCT | 0.11 kcal/mol
TTATGCACGTGAACTT | 0.27 kcal/mol
GAGGACACGTGGAGAG | 0.06 kcal/mol

Sequence | relative binding free energy
ATCGACACGTGGGGGG | -0.1 kcal/mol
TTGCTCACGTGTCTTG | 0.33 kcal/mol
AAAAGCACGTGTTGAT | 0 kcal/mol
ATGTGCACGTGGGCAT | -0.2 kcal/mol
TGATTCACGTGGTGAG | 0.23 kcal/mol
TTGGGCACGTGGTTGT | -0.02 kcal/mol
TGGATCACGTGTGGGT | 0.16 kcal/mol
AGAGGCACGTGTGGCT | -0.02 kcal/mol
ATGCTCACGTGTCGTG | 0.24 kcal/mol
CTCTTCACGTGGGAGG | 0.11 kcal/mol
GGTACCACGTGTTATT | 0.08 kcal/mol
TTGCTCACGTGGAATG | 0.2 kcal/mol
CGTGTCACGTGTGATA | 0.07 kcal/mol
GTGAGCACGTGGCTGA | -0.14 kcal/mol
TTAGACACGTGTGTCG | 0.03 kcal/mol
TTTTGCACGTGCTGTC | -0.12 kcal/mol
AGTATCACGTGAGGCT | 0.31 kcal/mol
ATGGTCACGTGTGGCC | 0.03 kcal/mol
TTTAACACGTGCAGTG | 0.05 kcal/mol
TCAGGCACGTGGGCGG | -0.12 kcal/mol
AGTGTCACGTGAACGG | 0.13 kcal/mol
TCACTCACGTGGGTGG | 0.09 kcal/mol
ATGGTCACGTGAATAA | 0.34 kcal/mol
